The source of these data is the supplement of paper PMC4967469.

By IC50 is meant the dose at which the fit gives 50% viability; a fit beyond the top or the lowest dose is shown as a bound at that dose. AUC, from the same fit, is the share of area under the viability curve across the 256-fold dose range; values near 1 show little effect.

Compound in the experiment: NC1(c2ccc(-c3nc4ccn5c(=O)[nH]nc5c4cc3-c3ccccc3)cc2)CCC1 [MK-2206]
The experiment can be described thus: Viability of human cancer cell lines after 72 h of drug (GDSC screen). As for the experimental part:
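Human cancer cell lines in 384-well plates, medium with 10% serum, drug for 72 h over a 256-fold dose range (nine 2-fold or five 4-fold steps up to the top dose). Adherent lines were fixed and stained with the nucleic acid dye Syto60, suspension lines read with resazurin; signal relative to control wells, capped at 0 and 100%. One two-parameter sigmoid per drug and line, fitted in a mixed model over all curves with the slope shared within a line.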

For the cell line “8-MG-BA (glioma, adherent, top dose 4 µM)”, the AUC came out at 0.945 and the IC50 – broadly, the midpoint of a concentration-inhibition curve – is above 4000 nM.

As to “22RV1 (prostate, adherent, top dose 4 µM)”, the AUC is 0.88 and the IC50 is above 4000 nM.

“42-MG-BA (glioma, adherent, top dose 4 µM)”: the AUC turned out to be 0.834 and the IC50 amounted to 2850 nM.

Regarding “201T (lung adenocarcinoma, adherent, top dose 4 µM)”, the AUC was found to be 0.837 and the IC50 was 3720 nM.

For “451Lu (melanoma, adherent, top dose 4 µM)”, the AUC was found to be 0.988 and the half-maximal inhibitory concentration (IC50) was above 4000 nM.

On to “639-V (bladder, adherent, top dose 4 µM)”, for which the AUC was 0.871 and the IC50 was determined as 2840 nM.

For “647-V (bladder, adherent, top dose 4 µM)”, the AUC was 0.945 and the IC50 is above 4000 nM.

As to 786-0 (kidney, adherent, top dose 4 µM), the AUC was determined as 0.886 and the IC50 was 3790 nM.

Turning to 5637 (bladder, adherent, top dose 4 µM), the AUC turned out to be 0.934 and the IC50 is above 4000 nM.

With “8305C (thyroid, adherent, top dose 4 µM)”, the AUC was determined as 0.884 and the 50% inhibitory concentration (IC50) is above 4000 nM.

With “8505C (thyroid, adherent, top dose 4 µM)”, the AUC was determined as 0.876 and the IC50 was above 4000 nM.

Consider “23132-87 (stomach, adherent, top dose 4 µM)”, for which the AUC was found to be 0.626 and the IC50 amounted to 564 nM.

As for “A3-KAW (B-cell lymphoma, suspension, top dose 4 µM)”, the AUC was 0.992 and the IC50 was above 4000 nM.

Turning to “A4-Fuk (B-cell lymphoma, suspension, top dose 4 µM)”, the AUC was 0.538 and the IC50 was determined as 318 nM.

For the cell line “A101D (melanoma, adherent, top dose 4 µM)”, the AUC turned out to be 0.911 and the IC50 is above 4000 nM.

As for “A253 (head and neck, adherent, top dose 4 µM)”, the AUC amounted to 0.949 and the IC50 is above 4000 nM.

As for “A375 (melanoma, adherent, top dose 4 µM)”, the AUC was found to be 0.889 and the IC50 turned out to be 3150 nM.

A388 (skin, adherent, top dose 4 µM): the AUC was found to be 0.828 and the IC50 was determined as 2960 nM.

“A427 (non-small cell lung carcinoma, adherent, top dose 4 µM)”: the AUC worked out at 0.955 and the 50% inhibitory concentration (IC50) is above 4000 nM.

Take A431 (skin, adherent, top dose 4 µM): the AUC stood at 0.891 and the IC50 is above 4000 nM.

Consider A498 (kidney, adherent, top dose 4 µM), for which the AUC came to 0.877 and the IC50 was above 4000 nM.

Regarding “A549 (lung adenocarcinoma, adherent, top dose 4 µM)”, the AUC turned out to be 0.756 and the IC50 came to 1520 nM.

As for “A673 (rhabdomyosarcoma, adherent, top dose 4 µM)”, the AUC was determined as 0.984 and the IC50 was above 4000 nM.

Consider A704 (kidney, adherent, top dose 4 µM), for which the AUC is 0.844 and the half-maximal inhibitory concentration (IC50) turned out to be 2720 nM.

Turning to “A2780 (ovary, semi-adherent, top dose 4 µM)”, the AUC was 0.974 and the 50% inhibitory concentration (IC50) was above 4000 nM.

As to AGS (stomach, adherent, top dose 4 µM), the AUC turned out to be 0.662 and the IC50 was determined as 667 nM.

For the cell line “ALL-PO (lymphoblastic leukaemia, suspension, top dose 4 µM)”, the AUC amounted to 0.595 and the 50% inhibitory concentration (IC50) was 463 nM.

With “ALL-SIL (T-cell leukaemia, suspension, top dose 4 µM)”, the AUC was 0.802 and the half-inhibitory concentration (IC50) worked out at 1650 nM.

For the cell line “AM-38 (glioma, semi-adherent, top dose 4 µM)”, the AUC worked out at 0.924 and the IC50 is above 4000 nM.

Take “AMO-1 (haematopoietic neoplasm, suspension, top dose 4 µM)”: the AUC came to 0.906 and the concentration for half-maximal inhibition (IC50) was above 4000 nM.

Take “ARH-77 (myeloma, suspension, top dose 4 µM)”: the AUC was determined as 0.988 and the 50% inhibitory concentration (IC50) is above 4000 nM.

For the cell line “ASH-3 (thyroid, adherent, top dose 4 µM)”, the AUC was 0.929 and the concentration for half-maximal inhibition (IC50) was above 4000 nM.

For the cell line “ATN-1 (T-cell lymphoblastic leukaemia, suspension, top dose 4 µM)”, the AUC was determined as 0.758 and the IC50 turned out to be 1300 nM.

In the case of AU565 (breast, adherent, top dose 4 µM), the AUC amounted to 0.563 and the concentration for half-maximal inhibition (IC50) was 378 nM.

Turning to “AsPC-1 (pancreas, adherent, top dose 2 µM)”, the AUC stood at 0.532 and the IC50 is 162 nM.

Consider “BALL-1 (B-cell leukaemia, suspension, top dose 4 µM)”, for which the AUC is 0.971 and the IC50 is above 4000 nM.

For “BB30-HNC (head and neck, adherent, top dose 4 µM)”, the AUC amounted to 0.789 and the IC50 amounted to 1730 nM.

Regarding “BB49-HNC (head and neck, adherent, top dose 4 µM)”, the AUC was 0.887 and the IC50 is above 4000 nM.

Consider “BC-1 (B-cell lymphoma, suspension, top dose 4 µM)”, for which the AUC came out at 0.982 and the half-maximal inhibitory concentration (IC50) was above 4000 nM.

Regarding “BCPAP (thyroid, adherent, top dose 2 µM)”, the AUC came out at 0.943 and the half-inhibitory concentration (IC50) is above 2000 nM.

Turning to “BE2-M17 (neuroblastoma, adherent, top dose 4 µM)”, the AUC stood at 0.89 and the half-inhibitory concentration (IC50) was above 4000 nM.

Regarding “BE-13 (lymphoblastic leukaemia, suspension, top dose 4 µM)”, the AUC was 0.985 and the IC50 was above 4000 nM.

For “BFTC-905 (bladder, adherent, top dose 4 µM)”, the AUC amounted to 0.936 and the half-inhibitory concentration (IC50) was above 4000 nM.

“BHT-101 (thyroid, adherent, top dose 4 µM)”: the AUC stood at 0.609 and the IC50 came to 504 nM.

Consider “BHY (head and neck, adherent, top dose 2 µM)”, for which the AUC came to 0.981 and the half-inhibitory concentration (IC50) is above 2000 nM.

For the cell line “BICR10 (head and neck, adherent, top dose 4 µM)”, the AUC worked out at 0.542 and the 50% inhibitory concentration (IC50) is 330 nM.

Consider “BICR22 (head and neck, adherent, top dose 4 µM)”, for which the AUC amounted to 0.799 and the 50% inhibitory concentration (IC50) is 2270 nM.

For “BICR78 (head and neck, adherent, top dose 4 µM)”, the AUC is 0.776 and the IC50 came to 1850 nM.

In the case of “BL-41 (Burkitt lymphoma, suspension, top dose 4 µM)”, the AUC came to 0.893 and the IC50 turned out to be 2780 nM.

Turning to “BPH-1 (prostate, adherent, top dose 2 µM)”, the AUC worked out at 0.903 and the IC50 was above 2000 nM.

For BT-20 (breast, adherent, top dose 4 µM), the AUC is 0.856 and the half-inhibitory concentration (IC50) is above 4000 nM.

“BT-474 (breast, adherent, top dose 4 µM)”: the AUC was 0.834 and the IC50 was found to be 3040 nM.

In the case of “BT-483 (breast, adherent, top dose 4 µM)”, the AUC worked out at 0.936 and the half-maximal inhibitory concentration (IC50) is above 4000 nM.

“BT-549 (breast, adherent, top dose 4 µM)”: the AUC amounted to 0.922 and the IC50 was above 4000 nM.

Turning to “BV-173 (chronic myeloid leukaemia, suspension, top dose 4 µM)”, the AUC is 0.782 and the concentration for half-maximal inhibition (IC50) was 1470 nM.

On to “Becker (glioma, adherent, top dose 4 µM)”, for which the AUC was found to be 0.862 and the half-maximal inhibitory concentration (IC50) is above 4000 nM.

Take “BxPC-3 (pancreas, adherent, top dose 4 µM)”: the AUC was 0.931 and the IC50 is above 4000 nM.

With “C2BBe1 (large intestine, adherent, top dose 2 µM)”, the AUC worked out at 0.983 and the IC50 was above 2000 nM.

For C3A (liver, adherent, top dose 4 µM), the AUC is 0.987 and the half-maximal inhibitory concentration (IC50) was above 4000 nM.

For the cell line C32 (melanoma, adherent, top dose 4 µM), the AUC came to 0.835 and the IC50 was 2870 nM.

Consider C-4-I (cervix, adherent, top dose 4 µM), for which the AUC is 0.832 and the half-maximal inhibitory concentration (IC50) turned out to be 2850 nM.

On to “C-33-A (cervix, adherent, top dose 4 µM)”, for which the AUC came out at 0.97 and the IC50 is above 4000 nM.

Take “CA46 (Burkitt lymphoma, suspension, top dose 4 µM)”: the AUC was found to be 0.94 and the IC50 is above 4000 nM.

As to “CADO-ES1 (Ewing sarcoma, suspension, top dose 4 µM)”, the AUC was 0.988 and the 50% inhibitory concentration (IC50) is above 4000 nM.

With “CAL-12T (non-small cell lung carcinoma, adherent, top dose 4 µM)”, the AUC is 0.928 and the half-maximal inhibitory concentration (IC50) was above 4000 nM.

Consider “CAL-27 (head and neck, adherent, top dose 4 µM)”, for which the AUC was 0.96 and the IC50 is above 4000 nM.

On to “CAL-29 (bladder, adherent, top dose 4 µM)”, for which the AUC was found to be 0.736 and the IC50 stood at 1260 nM.

Turning to “CAL-33 (head and neck, adherent, top dose 4 µM)”, the AUC is 0.692 and the IC50 amounted to 866 nM.

On to “CAL-39 (cervix, adherent, top dose 4 µM)”, for which the AUC was determined as 0.876 and the 50% inhibitory concentration (IC50) was above 4000 nM.
